# In PubChem BioAssay AID761 (NMMLSC, 2007):
# In all, about 190,000 compounds went through this assay and about 400 (0.21%) were called active. The shares of active, inactive and inconclusive entries below differ from those in the screen.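 How the source made its calls: active means percent activity GTP binding at least 20 points away from the 100% baseline, either down as inhibitor or up as activator; inconclusive means compound flagged as likely green fluorescent from well-wide comparison; inactive means the rest.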
# Target: Cell division control protein 42 homolog (Homo sapiens) (UniProt P60953)
# Assay: wildtype Cdc42 fluorescent GTP binding changes, either direction – biochemical, multiplex bead flow cytometry, Bodipy-GTP, primary screen (AID 761);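 further: median bead fluorescence of bound Bodipy-FL-GTP at 100 nM; 0% = excess unlabeled GTP control and 100% = no compound control; below 100% means less GTP binding so inhibitor and above means activator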
# Conditions: GST-Cdc42 beads, at 10 µM, actives lie on both sides
# UniProt P60953, sequence (P60953 whole entry, looked up): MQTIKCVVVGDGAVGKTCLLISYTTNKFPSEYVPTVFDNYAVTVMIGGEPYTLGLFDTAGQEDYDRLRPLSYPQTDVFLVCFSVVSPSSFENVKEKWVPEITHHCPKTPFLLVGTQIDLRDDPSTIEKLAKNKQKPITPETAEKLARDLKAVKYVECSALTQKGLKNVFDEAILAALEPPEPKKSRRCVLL
row,Compound,percent activity (GTP binding)
1,CN(C)CCNC(=S)Nc1ccc(Br)cc1,inconclusive: 105%
2,O=C(CSc1ccccc1)Nc1ccc(C(=O)Nc2cccc(O)c2)cc1,active: 77%
3,Cc1cc(Cl)c(S(=O)(=O)N2CCN(c3cccc(C)c3C)CC2)cc1OCC(N)=O,inconclusive: 100%
4,COc1ccccc1Oc1ccccc1C(=O)O,active: 122% [activator]
5,Cc1nn(-c2ccccc2)c(C)c1C(=O)OCC(=O)NCc1ccco1,inconclusive: 104%
6,O=C(NCC1CCCO1)/C(=C\c1ccco1)NC(=O)c1ccc(Cl)cc1 (stereo not drawn),inconclusive: 97%
7,N#Cc1c(-c2cccc(Br)c2)cc(-c2ccco2)[nH]c1=O,active: 79%
8,NS(=O)(=O)c1ccc(N2N=C(c3ccccc3)CC2c2ccc(F)cc2)cc1 (stereo not drawn),inactive: 89%
9,CC1(C)CC(=O)C=C(N=CC2=C(O)CC(C)(C)CC2=O)C1,inconclusive: 86%
10,C[C@@]1([C@@H](NC(=O)c2cccs2)c2ccc(-c3ccccc3)cc2)C[C@H]1C1CCCCC1,inactive: 103%
11,Clc1ccc(CSc2nnc(-c3ccc4c(c3)OCO4)o2)cc1,inconclusive: 97%
12,Cc1ccc(CSc2ncccc2C(=O)O)cc1,inconclusive: 137%
13,COc1ccc(Nc2nc(-c3c(C)nc4ncccn34)cs2)cc1,active: 76%
14,Nc1nc(SCC(=O)Nc2cccnc2Cl)n[nH]1,inconclusive: 83%
15,COc1ccc(NC(=O)CN2CCc3ccccc3C2)cc1S(=O)(=O)N1CCOCC1,inconclusive: 100%
16,O=C1N=C2SCCN2/C1=C\c1c(Cl)cccc1Cl,inconclusive: 104%
17,COc1ccc(Cl)cc1S(=O)(=O)Oc1ccc(NC(C)=O)cc1,inactive: 99%
18,Cc1ccc2cccc(NC(=S)NC(=O)c3c(Br)cnn3C)c2n1,inconclusive: 102%
19,Cc1cccc(C(=O)NC2C(=O)NNC2c2ccc(Cl)cc2)c1 (stereo not drawn),inconclusive: 93%
20,c1ccc(CCNc2ccnc3cc4ccccc4cc23)cc1,inconclusive: 93%
21,CC(=O)c1cccc(NC(=O)/C(=C\c2cccnc2)NC(=O)c2ccco2)c1,inactive: 97%
22,Cc1cccc(N2C(=O)CSC23CCCCC3)c1,inactive: 102%
23,CN(c1ccc(C(=O)O)cc1)S(=O)(=O)c1ccc(Cl)cc1,inconclusive: 96%
24,CCOC(=O)Cc1cnc(NC(=O)CSc2nc(N)cc(N)n2)s1,inconclusive: 86%

row,Compound,percent activity (GTP binding)
1,O=C1Oc2ccccc2C(=O)/C1=C/N1CCN(c2ccccc2F)CC1,inconclusive: 91%
2,Cc1cc(C)n(CC(O)Cn2c3ccc(Cl)cc3c3cc(Cl)ccc32)c(=O)n1 (stereo not drawn),inactive: 100%
3,O=c1c2ccccc2nc2c3ccccc3c(NCc3ccco3)nn12,active: 67%
4,O=C(NCC(=O)N1CC(O)CC1C(=O)N1CCCC1C(=O)OCc1ccccc1)OCc1ccccc1 (stereo not drawn),inactive: 91%
5,CCOC(=O)C(CC)Sc1ccc2nnc(CCNS(=O)(=O)c3ccccc3)n2n1 (stereo not drawn),inconclusive: 97%
6,CCOc1ccc(Cc2n[nH]c(=S)n2Cc2ccccc2)cc1,inactive: 94%
7,Cc1cc(C(=O)NC(=S)Nc2cccc(C(=O)O)c2C)ccc1[N+](=O)[O-],inconclusive: 115%
8,CCCCn1c(SCC(=O)c2ccccc2)nc2c1c(=O)[nH]c(=O)n2C,active: 38%
9,Cc1ccc(CNC(=O)C2=NNC(=O)CC2)cc1,inactive: 104%
10,Cc1ccc2c(c1)cc(C)c1nnc(SCC(=O)NCc3ccco3)n12,inconclusive: 93%
11,CCOc1ccc(-c2cc(N3C(=O)Nc4ccccc4N3O)n[nH]2)cc1,inactive: 96%
12,CC1CCCCN1CCn1c(=S)[nH]c2cc3c(cc2c1=O)OCO3 (stereo not drawn),inconclusive: 95%
13,COc1ccc(/C=N/NC(=O)CCCC(=O)NC2CCCCC2)cc1,inconclusive: 109%
14,CCCc1nc2ccccc2c(=O)n1CC(=O)c1ccccc1,inactive: 99%
15,O=C(O)CCN1C(=O)/C(=C\c2ccc(-c3nc4ccccc4s3)o2)SC1=S,active: 69%
16,O=C(N/N=C/c1cn(-c2cccs2)nc1-c1ccccc1)c1ccccc1Cl,inconclusive: 98%
17,COc1ccc(NC(=O)c2ccco2)cc1NC(=O)c1cccs1,inconclusive: 103%
18,O=[N+]([O-])c1cccc(C2NCC(c3ccccc3Cl)c3c2[nH]c2ccccc32)c1 (stereo not drawn),inconclusive: 97%
19,CCc1ccc(C2=NN(CCC(=O)NCc3cccs3)C(=O)CC2)cc1,inactive: 103%
20,Nc1nc(CN2CCN(c3ccccc3F)CC2)nc(N2CCCc3ccccc32)n1,active: 79%
21,CCCCN1C(=O)/C(=C/C=C2\N(C)c3ccccc3C2(C)C)SC1=S,inconclusive: 160%
22,CC(C(=O)N1CCCCC1)N(C)CC(=O)Nc1ccc(Cl)cc1 (stereo not drawn),inactive: 99%
23,COc1cccc(NC(=O)c2oc3ccc(S(=O)(=O)N4CCOCC4)cc3c2C)c1,inconclusive: 92%
24,Cc1cc(-n2c(SCc3ccccc3F)nc3n[nH]c(C)c3c2=N)ccc1Cl,inconclusive: 94%

row,Compound,percent activity (GTP binding)
1,O=C(CCn1c(=S)oc2ccccc21)Nc1cccc(O)c1,inactive: 95%
2,COc1cc(N2CCCC2)c(OC)cc1/C=c1/sc2nc3ccccc3n2c1=O,inconclusive: 319%
3,Cc1nc2cc(C(=O)NCc3ccc4c(c3)OCO4)ccc2n1-c1ccc(Br)cc1,inconclusive: 80%
4,Cc1ccc(NC(=O)/C=C/c2ccc3c(c2)OCO3)cc1S(=O)(=O)N1CCOCC1,inactive: 96%
5,O=C(c1ccc(COc2ccc(F)cc2)o1)n1cccn1,inconclusive: 96%
6,O=C(N/N=C/c1sc(N2CCCCC2)nc1-c1cccs1)C1CC1,inconclusive: 91%
7,COc1ccc(NC(=O)c2cccc(N3C(=O)NC4CC3(C)Oc3ccccc34)c2)cc1 (stereo not drawn),inconclusive: 99%
8,Fc1ccccc1Cc1noc(CN2CCN(C/C=C/c3ccccc3)CC2)n1,inactive: 99%
9,CN(C)c1nnc(-c2ccc(Cl)cc2)o1,inconclusive: 95%
10,CCCc1n(CC)c2ccccc2[n+]1CC(O)COC1CCCCC1 (stereo not drawn),inactive: 100%
11,CC(C)C1N(C(=O)CN2CCCCC2)CCN1S(=O)(=O)c1ccccc1 (stereo not drawn),inactive: 97%
12,CCn1c(CNC(=O)Cc2ccc(OC)cc2)nnc1SCC(=O)Nc1ccc(C(=O)O)cc1,inactive: 97%
13,CC(=O)Nc1ccc(S(=O)(=O)N2CCN(Cc3cccc([N+](=O)[O-])c3)CC2)cc1,inactive: 99%
14,Cc1nnsc1S(=O)(=O)Cc1ccccc1Cl,inconclusive: 109%
15,CC(C)NC(=O)NC(=O)CN1C(=O)NC(Cc2c[nH]c3ccccc23)C1=O (stereo not drawn),inactive: 93%
16,CCOC(=O)c1c(C)[nH]c(C(=O)COC(=O)/C=C/c2ccc(OCC#N)c(OC)c2)c1C,inactive: 99%
17,CC1CCC2(CC1)NC(=O)N(Cc1cccc(C(F)(F)F)c1)C2=O (stereo not drawn),inconclusive: 90%
18,O=C1c2cccc3cccc(c23)C(=O)N1CCCCCc1n[nH]c(=S)o1,inconclusive: 78%
19,COc1ccc(S(=O)(=O)N(CC(=O)N/N=C/c2cccs2)c2cc(C)cc(C)c2)cc1OC,inactive: 98%
20,CCN(CC)c1ccc(/C=C(\C#N)C(=O)c2ccc(Br)cc2)cc1,inconclusive: 138%
21,COc1ccc2c(c1)c(=O)oc1c(C)c(OCc3cc(C(=O)O)oc3C)ccc12,inconclusive: 88%
22,CCOC(=O)CN1C(=O)CN(c2ccc(C)c(C)c2)C1=O,inconclusive: 101%
23,CSCC[C@H](NC(=O)OC(C)(C)C)C(=O)N/N=C/c1cc2ccc(C)cc2nc1Cl,inconclusive: 95%
24,O=c1[nH]c(N/N=C\c2ccc3c(c2)OCO3)nc2ccccc12,active: 78%

row,Compound,percent activity (GTP binding)
1,Cc1ccc(C)c(S(=O)(=O)NCc2ccc(C(=O)NCc3ccccn3)cc2)c1,inconclusive: 103%
2,CC(Cc1c[nH]c2ccccc12)C(=O)O (stereo not drawn),inactive: 91%
3,Cc1c2cc(O)c(=O)cc-2oc2cc(O)c(O)cc12,inconclusive: 824%
4,O=C(O)c1ccc2cc[nH]c2c1,inconclusive: 96%
5,CC[n+]1c(C)sc2c3ccsc3ccc21,inconclusive: 92%
6,CC1(C)Cc2c(sc3nc(SCC(=O)NCc4ccco4)n(-c4ccccc4)c(=O)c23)CS1,inconclusive: 109%
7,Nc1c(C(=O)C2CC2)sc2nc(-c3cccs3)cc(C(F)(F)F)c12,inactive: 109%
8,COCCNC(=O)NC(=O)CN1CCCc2ccccc21,inactive: 93%
9,c1ccc(-c2nc(NCc3cccnc3)c3oc4ccccc4c3n2)cc1,inconclusive: 93%
10,O=C(O)c1n[nH]nc1-c1ccccc1,inactive: 99%
11,COc1ccc(N2CCC(CNC(=S)Nc3cccc(OC)c3)C2)cc1 (stereo not drawn),inconclusive: 105%
12,Cn1nccc1C(=O)N1CCc2ccccc21,inconclusive: 103%
13,CCOC(=O)C1CCN(C(=O)c2cc3cc(Br)ccc3oc2=O)CC1,inactive: 97%
14,CC(C)CC(=O)Nc1nnn(C)n1,inconclusive: 105%
15,CCOC(=O)/C(=C\Nc1ccccc1C(F)(F)F)Sc1ncc(C(F)(F)F)cc1Cl,inconclusive: 103%
16,O=C(COC(=O)/C=C/c1cccc([N+](=O)[O-])c1)NCc1ccc2c(c1)OCO2,inactive: 82%
17,COc1cccc(CC(NC(C)=O)C(=O)NC2CCN(S(=O)(=O)c3ccc4ccccc4c3)CC2)c1 (stereo not drawn),inactive: 103%
18,O=C(NN1S(=O)(=O)c2ccccc2S1(=O)=O)c1ccc(Br)cc1,inconclusive: 92%
19,COc1cc(-c2nn3c(-c4ccccn4)nnc3s2)cc(OC)c1OC,inconclusive: 94%
20,C/C=N/NC(=O)CCNC(=O)c1ccccc1,inactive: 99%
21,CCN(CC)S(=O)(=O)c1ccc2c(c1)nc(CCC(=O)Nc1ccccc1Cc1ccccc1)n2CC,inconclusive: 92%
